Measured values taken from PubChem BioAssay AID1345082 (National Center for Advancing Translational Sciences (NCATS), 2018).
Among all 94,000 compounds or so, about 4,000 (4.3%) were called active. The inconclusive results got no clear call from the source; some entries with a clear call stand among them for comparison. The call rests on the fitted dose curve; in most records, active means well fitted inhibition curve with a large enough effect; inconclusive means small, poorly fitted or top-dose-only effect; inactive means no such curve, though single readings can be large or run the other way. Where the call is inconclusive, the potency comes from a doubtful curve fit.

Assay: Cytotoxic Profiling in NIH 3T3 Cell Line of Diverse Libraries Using Quantitative High-Throughput Screening; further: nearly all actives have a fitted effect of over 55% in size
Conditions: NIH 3T3 viability, CellTiter-Glo ATP luminescence, 48-72 h; series mostly up to 96.7 µM
Summary of the method: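 ATP-dependent luminescence (CellTiter-Glo) served as the viability signal for NIH 3T3 cells treated with compound for 48 or 72 hr at 37 °C.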
Potency means the concentration at half of the fitted maximal effect; tags describe the fitted curve by direction and shape.

Row | SMILES | Potency
1 | O=C(NC1CCCC1)C1Cn2cccc2C(=O)N1Cc1cccnc1 (stereo not drawn) | inactive
2 | CC1CCN(C(=O)c2ccc(-c3ccc(N4CCSCC4)nc3)cc2)CC1 | inconclusive: 35.5 µM [inhibitor, partial curve, poor fit]
3 | O=C1N(c2ccccc2)C[C@H]2CN(Cc3ccnc4ccccc34)CCN12 | inconclusive: 20 µM [inhibitor, full curve]
4 | CCOCc1nc(C2CCCN2S(=O)(=O)c2cn(C)cn2)no1 (stereo not drawn) | inactive
5 | CC(=O)N[C@@H]1CN(C(=O)c2[nH]c3c(C)ccc(C)c3c2C)C[C@H]1C(C)C | inconclusive: 50.1 µM [inhibitor, partial curve, poor fit]
6 | CCc1cccc(NC(=O)[C@@H]2CN(S(=O)(=O)CC)C[C@H]2c2ccncc2)c1 | inactive
7 | COc1cccc(-c2cn3cc(C(=O)NCCN4CCOCC4)nc3s2)c1 | inconclusive: 50.1 µM [inhibitor, partial curve, poor fit]
8 | COCc1cc(N2CCc3onc(-c4cccc5ccccc45)c3C2)ncn1 | inconclusive: 14.1 µM [inhibitor, full curve, poor fit]
9 | CC(C)Cn1c(=O)c(C(=O)N2CCN(C(=O)c3ccccc3Cl)CC2)nc2cccnc21 | inactive
10 | COCCCNc1ncnc2c1CN(C1CCCCC1)C(=O)CN2C | inactive
11 | CN(Cc1ccccc1)C(=O)c1cc(-c2ccccc2F)nc2c1cnn2C | inconclusive: 50.1 µM [inhibitor, partial curve, poor fit]
12 | Cc1cnc(CC2CCN(S(=O)(=O)c3ccc(C#N)cc3)C2)n1C1CC1 (stereo not drawn) | inactive
13 | O=C1c2cc(N3CCOCC3)nc(-c3cccc(F)c3)c2CN1Cc1ccccc1 | inconclusive: 50.1 µM [inhibitor, full curve, poor fit]
14 | Cc1ccc2nc3n(c2c1)[C@@H](CNC1CCCCC1)COC3 | inconclusive: 79.4 µM [inhibitor, partial curve, poor fit]
15 | COCC(=O)N1CC(Oc2ccc(-c3noc(-c4ccncc4)n3)cc2)C1 | inconclusive: 44.7 µM [inhibitor, partial curve, poor fit]
16 | O=C(c1cc(-c2ccccc2)nc2ccccc12)N1CCc2c(nc[nH]c2=O)C1 | inconclusive: 50.1 µM [inhibitor, partial curve, poor fit]
17 | COCCCNC(=O)c1cc(-c2cc(Cl)cc(Cl)c2)c2nncn2n1 | inconclusive: 3.55 µM [inhibitor, partial curve, poor fit]
18 | Cc1ccc(-c2nnc3ccc(NC4CCCCC4)nn23)nc1 | inconclusive: 31.6 µM [inhibitor, full curve]
19 | CC(O)CCNS(=O)(=O)c1ccc2c(c1)CN(C(=O)CN1CCOC1=O)CC2 (stereo not drawn) | inactive
20 | CCC(CC)Nc1ncnc2c1CN(C1CCC1)C(=O)CN2C | inconclusive: 79.4 µM [inhibitor, partial curve]
21 | Cc1ccccc1C(=O)NC1CCCN(c2cc(-c3ccccc3)[nH]n2)C1 (stereo not drawn) | inconclusive: 50.1 µM [inhibitor, partial curve, poor fit]

Row | SMILES | Potency
22 | C[S+](=O)([O-])c1ccc(-c2nc(C(=O)N3CCN(c4ncccn4)CC3)n3ccncc23)cc1 | inactive
23 | Cc1nc(-c2cn(C3CCCN(C(=O)C(C)Oc4ccc(Cl)cc4)C3)nn2)no1 (stereo not drawn) | inactive
24 | COCCOC1CCOC2(CCN(C(=O)c3ccco3)CC2)C1 (stereo not drawn) | inactive
25 | COc1cc2c(cc1OC)C(CNC(=O)c1ccc(C)cc1)N(C(=O)Nc1ccccc1F)CC2 (stereo not drawn) | inactive
26 | COc1ccc(-c2[nH]nc3ncc(-c4ccc([S+](C)(=O)[O-])cc4)nc23)c(C)c1 | inconclusive: 22.4 µM [inhibitor, full curve, poor fit]
27 | CC(C)C(=O)NC1CCN(C(=O)c2ccc(-c3cccs3)cc2)CC1 | inconclusive: 50.1 µM [inhibitor, partial curve, poor fit]
28 | CC1=C[C@@H](CNC(=O)C2CCCCC2)[C@H](C(C)C)C[C@H]1CC(=O)NCc1cccnc1 | inconclusive: 31.6 µM [inhibitor, partial curve, poor fit]
29 | Cc1cc(=O)n(CC(=O)Nc2ccc(C)c(C)c2)c(N(C)Cc2ccccc2)n1 | inconclusive: 39.8 µM [inhibitor, partial curve, poor fit]
30 | O=C(Cc1ccccc1)N1CCC(Oc2cccc(F)c2)C1 (stereo not drawn) | inconclusive: 39.8 µM [inhibitor, partial curve]
31 | CCc1ccc(NC(=O)C2CCN(C(=O)c3ncn4c3COC(c3ccc(F)cc3)C4)CC2)cc1 (stereo not drawn) | inactive
32 | Clc1ccc(-c2cnc([C@@H]3COCCN3Cc3ccccc3)[nH]2)cc1 | inconclusive: 56.2 µM [inhibitor, partial curve, poor fit]
33 | COc1cccc(CNC(=O)c2c(C)oc3ccn(Cc4ccc(F)cc4)c(=O)c23)c1 | inconclusive: 31.6 µM [inhibitor, full curve]
34 | COc1ccc(NC(=O)c2cc(-c3ccccc3C(F)(F)F)nc3c2cnn3C)cc1OC | inconclusive: 44.7 µM [inhibitor, partial curve, poor fit]
35 | COc1ccc(-c2cc(N3CCC(NC(=O)c4cccc(Br)c4)C3)n[nH]2)cc1 (stereo not drawn) | inconclusive: 44.7 µM [inhibitor, partial curve, poor fit]
36 | CCOC(=O)C1CCN(C(=O)c2cc(-c3ccsc3)nc3c2cnn3C)CC1 | inconclusive: 50.1 µM [inhibitor, partial curve, poor fit]
37 | CCN1CCCC1CNC(=O)CCC1CCN(Cc2cn(CC)c3ccccc23)CC1 (stereo not drawn) | inconclusive: 100 µM [inhibitor, partial curve, poor fit]
38 | COc1ccc(C(=O)Nc2nc3c(s2)C[C@@H]2[C@](C)(CO)[C@H](O)CC[C@@]2(C)[C@@H]3CC(=O)N(C)Cc2ccccc2)cc1 | inconclusive: 39.8 µM [inhibitor, partial curve, poor fit]
39 | CC(=O)Nc1cccc(-c2cc3c(ccn3C)c(C(=O)NCc3cccnc3)n2)c1 | active: 25.1 µM
40 | Cn1ncc2c(C(=O)NCc3ccc4c(c3)OCO4)cc(-c3ccccc3)nc21 | inconclusive: 70.8 µM [inhibitor, single point]
41 | CC(C)c1ccccc1NC(=O)Cn1ccn2nc3c(c2c1=O)CCCCC3 | inconclusive: 44.7 µM [inhibitor, partial curve, poor fit]
42 | O=C(NCC(F)F)C1CCCN(Cc2cccc(-c3ccc(F)cc3F)c2)C1 (stereo not drawn) | inconclusive: 44.7 µM [inhibitor, partial curve, poor fit]

Row | SMILES | Potency
43 | O=C(NC[C@H]1OC[C@@H](NCc2ccccc2O)[C@@H]1O)Nc1ccccc1 | inactive
44 | O=C(NCCc1ccc(Cl)cc1)C1CCc2nnc(-c3ccc(Cl)cc3Cl)n21 (stereo not drawn) | inconclusive: 50.1 µM [inhibitor, partial curve, poor fit]
45 | Cc1cc(C)c(CNC(=O)c2cc(-c3ccnn3C)cc3c2OCCN3C(C)C)c(=O)[nH]1 | inconclusive: 79.4 µM [inhibitor, partial curve]
46 | CCN(CC)C(=O)[C@@H]1C[C@H](NC(=O)c2ccc[nH]2)CN1Cc1ccncc1 | inconclusive: 63.1 µM [inhibitor, partial curve, poor fit]
47 | COc1ccc(Cl)cc1NC(=O)CCC1CCCN(Cc2ccc(C)s2)C1 (stereo not drawn) | inconclusive: 79.4 µM [inhibitor, partial curve, poor fit]
48 | CC(C)OCCCNC(=O)C1CCCN1Cc1ccc(-c2cncnc2)cc1 (stereo not drawn) | inactive
49 | COCCNC(=O)c1cn2ccnc(-c3ccc(OC)cc3)c2n1 | inactive
50 | O=C(NCC(F)(F)F)C1CCCN(Cc2cccc(-c3cccs3)c2)C1 (stereo not drawn) | inconclusive: 56.2 µM [inhibitor, partial curve, poor fit]
51 | Cc1ccc(NC(=O)NCCc2ncc(C)n2CC2CC2)cc1C | inconclusive: 44.7 µM [inhibitor, partial curve, poor fit]
52 | O=C(Cc1ccc(F)cc1)NCCNC(=O)c1cccc(-c2ccc(C(F)(F)F)cc2)c1 | inactive
53 | CCN(CC)CC(C)NC(C)C (stereo not drawn) | inactive
54 | COc1ccc(-c2cc(C(=O)NCC(C)C)c3c(C4CCCN4)nn(C)c3n2)cc1 (stereo not drawn) | active: 31.6 µM
55 | CN1CC(=O)N(C2CCCCC2)Cc2c(NCCCO)ncnc21 | inactive
56 | C=CCNC(=O)[C@@H]1Cc2cn(Cc3cc(C)on3)c3cccc(c23)[C@H](CC(C)C)N1 | active: 79.4 µM
57 | O=C(c1ccoc1)N1CCCC(c2noc(COc3ccccc3F)n2)C1 (stereo not drawn) | inconclusive: 44.7 µM [inhibitor, partial curve, poor fit]
58 | CCOC(=O)[C@H]1C[C@]2(CCCCN(CCOC)C2=O)N(C(=O)C2CCCC2)[C@H]1c1ccco1 | inactive
59 | CCOc1ccc(NC(=O)Cn2c(N3CCC(C)CC3)nc(C)cc2=O)cc1 | inconclusive: 25.1 µM [inhibitor, partial curve]
60 | O=C(c1ccc(C(F)(F)F)cc1)N1CCC2(CC1)CC(=O)N(c1ccccc1)c1ccccc1O2 | inconclusive: 25.1 µM [inhibitor, partial curve, poor fit]
61 | Cc1noc(C)c1-c1cc2cc(C(C)C)oc2c(-c2ccc(CO)cc2)n1 | inconclusive: 50.1 µM [inhibitor, partial curve, poor fit]
62 | N#Cc1ccc(S(=O)(=O)N2CC(C(=O)NC3CCCCC3)C3(CCOCC3)C2)cc1 (stereo not drawn) | inactive
63 | O=C(NC1CCN(c2ccnc3ccnn23)C1)C1CCCC1 (stereo not drawn) | inconclusive: 50.1 µM [inhibitor, partial curve, poor fit]
